Data from PubChem BioAssay AID624418 (National Center for Advancing Translational Sciences (NCATS), 2012).
Out of some 410,000 compounds screened, about 530 (0.13%) were called active. The shares of active, inactive and inconclusive entries below differ from those in the screen. Calls come from the whole dose curve; as a rule, active = well fitted inhibition curve with a large enough effect; inconclusive = small, poorly fitted or top-dose-only effect, or another doubt; inactive = no such curve, though single readings can be large or run the other way. A potency beside an inconclusive call is a rough fit, not a confirmed value.

test: qHTS of GLP-1 Receptor Inverse Agonists: Cytotox Screen; conditions: HEK293 cAMP-luciferase reporter cells, luminescence, 24 h; activity change, negative = inhibition: at 38.3 µM (top of the series)
Outline: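 Luminescence readout: signal drop marks cytotoxicity. Plated cells grew 12 h at 37 °C, 5% CO2, received 23 nL compound for 24 h, then got luciferase reagent, read after 12 min at RT.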
% is set by controls: 0 for no effect and ±100 for the full control effect; potency is the fitted concentration of half-maximal effect.

Compound | activity change, negative = inhibition | Potency
CCCCn1c(N)c(N(CCOC)C(=O)c2ccc(Cl)c(S(=O)(=O)N3CCCC3)c2)c(=O)[nH]c1=O | inactive: 7.02% | –
CC1(CC(=O)N/N=C/c2cc([N+](=O)[O-])c(O)cc2O)OCCO1 | – | inconclusive: 28.2 µM [inhibitor, single point]
O=c1ccc2[n+]([O-])c3ccc(O)cc3oc-2c1 | inactive: 1.29% | –
COc1ccc(-c2cc(-c3cc(C)ccc3O)[nH]n2)cc1 | – | inconclusive: 10 µM [inhibitor, single point]
O=[N+]([O-])c1cc([N+](=O)[O-])c(Oc2cccnc2Br)cc1NN1CCCCC1 | – | inconclusive: 4.47 µM [inhibitor, full curve, poor fit]
O=C(NNc1nc2ccc(Cl)cc2s1)c1cc(-c2cccs2)nc2ccccc12 | – | inconclusive: 10 µM [inhibitor, partial curve, poor fit]
CN1C(=S)N2CCCN2C1c1ccccc1 (configuration not stated) | inactive: -8.47% | –
COC(=O)c1ccc(CN2CCCC(CO)(Cc3ccccc3F)C2)cc1 (configuration not stated) | inactive: -3.02% | –
O=C(Nc1nc(-c2ccccc2)cs1)c1ccccc1NS(=O)(=O)c1ccc(F)cc1 | – | inconclusive: 11.2 µM [inhibitor, partial curve, poor fit]
Cc1oc2c(CN(C)C)c(O)ccc2c(=O)c1-c1cscn1 | inactive: -3.52% | –
O=C(NC1CC1)c1cc2ccccc2o1 | – | inconclusive: 12.6 µM [inhibitor, single point]
Cc1cccc(NC(=O)c2ccc(N(Cc3ccccc3)S(C)(=O)=O)cc2)c1 | inactive: -2.14% | –
O=C1CCCC(O)=C1N=Nc1cccc(C(=O)O)c1 | – | inconclusive: 10 µM [inhibitor, single point]
Cc1cc2ncn(CCCCOc3ccccc3)c2cc1C | – | inconclusive: 28.2 µM [inhibitor, single point]
C=CCn1c(SCN2C(=O)c3ccccc3C2=O)nc2ccc(Cl)cc2c1=O | – | inconclusive: 11.2 µM [inhibitor, single point]
COC(=O)C1CCC(=O)N1C(c1ccc(OC)cc1)c1cc(OC)c(OC)c(OC)c1 (configuration not stated) | – | inconclusive: 0.316 µM [inhibitor, full curve, poor fit]
COc1cc(-c2nnn(CC(=O)Nc3ccc(OC(F)(F)F)cc3)n2)cc(OC)c1OC | – | inconclusive: 31.6 µM [inhibitor, partial curve, poor fit]
CCCCN1C(=N)N([C@@H](CN2CCC[C@H]2CN2C(N)=NC[C@@H]2Cc2ccccc2)C(C)C)C[C@H]1Cc1ccccc1 | – | inconclusive: 0.501 µM [inhibitor, full curve, poor fit]
O=C(CSCc1ccccc1Cl)N1CCN(c2ccc(F)cc2)CC1 | inactive: -1.52% | –

Compound | activity change, negative = inhibition | Potency
CCc1ccc2nc(N(CCCN(C)C)C(=O)c3ccc(S(=O)(=O)N4CCCc5ccccc54)cc3)sc2c1 | – | inconclusive: 2.82 µM [inhibitor, single point]
CCOc1cc(/C=C\[N+](=O)[O-])ccc1OCC(=O)N1CCOCC1 | – | inconclusive: 28.2 µM [inhibitor, single point]
CCc1ccc(-c2nc(CN3CCC(C(=O)N4CCN(c5ccccn5)CC4)CC3)c(C)o2)cc1 | – | inconclusive: 31.6 µM [inhibitor, single point]
COc1ccc2oc(C(=O)NN3C(C)CCCC3C)c(C)c2c1 (configuration not stated) | inactive: -3.83% | –
CN(C)c1ccc(NC(=O)c2sc(SCC(=O)Nc3nccs3)nc2N)cc1 | – | inconclusive: 3.55 µM [inhibitor, full curve]
O=C(/C(=N/N=C/c1ccc(O)c(O)c1)c1ccccc1)c1ccccc1 | – | inconclusive: 15.8 µM [inhibitor, partial curve, poor fit]
O=C(CCCCn1c(=O)c2ccccc2n(Cc2ccc(Cl)cc2)c1=O)NCc1ccco1 | – | inconclusive: 5.01 µM [inhibitor, partial curve]
O=C(NC1CCCCCCC1)c1cc(F)c(F)cc1Cl | inactive: 2.2% | –
CCN(CC)C(=O)CSC1=N/C(=C/c2ccco2)C(=O)N1c1ccc(OC)c(Cl)c1 | – | inconclusive: 8.91 µM [inhibitor, partial curve, poor fit]
CCOc1ccc(CCN2C(=O)C(=O)N([C@@H](Cc3ccccc3)CN3CCC[C@H]3CN3C(=O)C(=O)NC[C@@H]3CC(C)C)C[C@@H]2Cc2ccc(O)cc2)cc1 | – | inconclusive: 28.2 µM [inhibitor, single point]
Cn1c2c(c(=O)n(C)c1=O)C(C(F)(F)F)(C(F)(F)F)N=C(c1ccc(Cl)cc1)N2 | – | inconclusive: 3.55 µM [inhibitor, partial curve, poor fit]
CC(=O)Oc1cc2c(C(=O)NCCN3CCOCC3)c(C)oc2c2ccccc12 | – | inconclusive: 31.6 µM [inhibitor, partial curve, poor fit]
CC1C(c2ccccc2)N(C)C(c2ccccc2)CC1(O)c1ccc(F)cc1 (configuration not stated) | – | inconclusive: 28.2 µM [inhibitor, partial curve, poor fit]
CC1=NN(c2nc(-c3ccccc3)cs2)C(=O)C1 | inactive: -15.6% | –
COc1ccccc1N1CCN(C(=O)c2nn(-c3ccc(C)cc3)c(=O)n(C)c2=O)CC1 | inactive: -3.01% | –
COCCCNC(=O)c1oc2c(c1C)-c1nn(Cc3cccc(Cl)c3)cc1CC2 | inactive: -9.33% | –
COc1ccc([C@H]2[C@H]3C=CC[C@@H](C)[C@@H]3C(=O)N2Cc2ccccc2)cc1Cl | – | inconclusive: 0.447 µM [inhibitor, full curve, poor fit]
CCOC(=O)C1CCCN(/C=C2\SC(=S)N(CC)C2=O)C1 (configuration not stated) | – | inconclusive: 12.6 µM [inhibitor, partial curve, poor fit]
